The values below come from patent US20230127965A1, “METHODS FOR TREATING, AMELIORATING, OR PREVENTING VIRAL INFECTIONS” (Thomas Jefferson University, priority 2020, published 2023).

Molecules are shown by their SMILES.

The test concerns SARS-CoV-2 Spike protein. Briefly: Western blot of SARS-CoV-2 infected Huh7.5 cell lysates probed with α-spike antibody. It counts as cell-based. The following applies: 10 μM for 2 h, then infected; human Huh7.5 cells; 48 hours post-infection as printed in b253 (FIG. 4). On the technique in general: Immunoblotting shows a protein as a band on a membrane.

Consider `N=C(NCCCOc1ccc(F)cc1)Nc1ccc(Cl)cc1` [CT189], for which the “SARS-CoV-2 Spike protein level (Western blot)” value (“SARS-CoV-2 Spike protein level” below) is “striking decrease”.

Turning to `N=C(Nc1ccc(I)cc1)NC1C2CC3CC(C2)CC1C3` (stereo not drawn) [IPAG], the “SARS-CoV-2 Spike protein level” value is on record as “striking decrease”.

As for `Cc1cc(OCCN2CCOCC2)nn1-c1ccc2ccccc2c1` [Compound S1RA, 4-[2-[[5-methyl-1-(2-naphthalenyl)-1H-pyrazol-3-yl]oxy]ethyl]morpholine], the “SARS-CoV-2 Spike protein level” value was “did not”.
